According to the supplement of paper PMC9588766:
Where a name gives a salt, the structure may show the parent alone. Over roughly 1,900 compounds, “cell viability of compound + 1 nM pemigatinib relative to pemigatinib-only (DMSO) wells” has its median near 0.95; the lowest 2% begin near 0.22. The list shows a part of the results.

tested on: PDC-DUC18828; experiment: cell viability of compound + 1 nM pemigatinib relative to pemigatinib-only (DMSO) wells (fraction); PDC-DUC18828 is a patient-derived cholangiocarcinoma cell line; higher = less growth inhibition; settings: first compound 1 µM; pemigatinib concentration 1 nM; 72 h
Procedure: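 Selleck Bioactive library screen in the patient-derived FGFR2 fusion-positive ICC cell line PDC-DUC18828 (500 cells/well). Each compound was tested at 1 uM with 1 nM pemigatinib, in triplicate, for 72 h. Viability was read by CellTiter-Glo and normalised to plate DMSO controls. Value is the paper's averaged normalised viability.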

Compound | cell viability
C=C1C[C@@H]2[C@H](CC[C@]3(C)C(=O)CC[C@@H]23)[C@@]2(C)C=CC(=O)C=C12 [Exemestane] + CCN1C(=O)N(c2c(F)c(OC)cc(OC)c2F)Cc2cnc3[nH]c(CN4CCOCC4)cc3c21 [pemigatinib] | 0.943
COc1cc(OC)c(OC)cc1C=O [Asaraldehyde] + CCN1C(=O)N(c2c(F)c(OC)cc(OC)c2F)Cc2cnc3[nH]c(CN4CCOCC4)cc3c21 [pemigatinib] | 0.933
OC(c1ccccc1)(c1ccccc1)C1CCNCC1 [Azacyclonol] + CCN1C(=O)N(c2c(F)c(OC)cc(OC)c2F)Cc2cnc3[nH]c(CN4CCOCC4)cc3c21 [pemigatinib] | 0.809
CCC1(C)CC(=O)NC(=O)C1 [Bemegride] + CCN1C(=O)N(c2c(F)c(OC)cc(OC)c2F)Cc2cnc3[nH]c(CN4CCOCC4)cc3c21 [pemigatinib] | 1.02
C/C(O)=C(\C#N)C(=O)Nc1cc(Br)ccc1Br + CCN1C(=O)N(c2c(F)c(OC)cc(OC)c2F)Cc2cnc3[nH]c(CN4CCOCC4)cc3c21 [pemigatinib] | 0.863
CCN(Cc1ccc(Cl)nc1)/C(=C/[N+](=O)[O-])NC [Nitenpyram] + CCN1C(=O)N(c2c(F)c(OC)cc(OC)c2F)Cc2cnc3[nH]c(CN4CCOCC4)cc3c21 [pemigatinib] | 0.968
Cc1ccccc1-n1c(Cn2ncc3c(N)ncnc32)nc2cccc(C)c2c1=O + CCN1C(=O)N(c2c(F)c(OC)cc(OC)c2F)Cc2cnc3[nH]c(CN4CCOCC4)cc3c21 [pemigatinib] | 0.912
Cn1c(COP(=O)(NCCBr)NCCBr)cnc1[N+](=O)[O-] + CCN1C(=O)N(c2c(F)c(OC)cc(OC)c2F)Cc2cnc3[nH]c(CN4CCOCC4)cc3c21 [pemigatinib] | 0.96
Cc1sc2c(c1C)C(c1ccc(Cl)cc1)=N[C@@H](CC(=O)OC(C)(C)C)c1nnc(C)n1-2 + CCN1C(=O)N(c2c(F)c(OC)cc(OC)c2F)Cc2cnc3[nH]c(CN4CCOCC4)cc3c21 [pemigatinib] | 0.688
CCc1cc2c(s1)-n1c(C)nnc1CN=C2c1ccccc1Cl [Etizolam] + CCN1C(=O)N(c2c(F)c(OC)cc(OC)c2F)Cc2cnc3[nH]c(CN4CCOCC4)cc3c21 [pemigatinib] | 0.969
O=C(O)c1nn(Cc2ccc(Cl)cc2Cl)c2ccccc12 [Lonidamine] + CCN1C(=O)N(c2c(F)c(OC)cc(OC)c2F)Cc2cnc3[nH]c(CN4CCOCC4)cc3c21 [pemigatinib] | 0.964
Cc1cc(C(C#N)c2ccc(Cl)cc2)c(Cl)cc1NC(=O)c1cc(I)cc(I)c1O (configuration not stated) [Closantel Sodium] + CCN1C(=O)N(c2c(F)c(OC)cc(OC)c2F)Cc2cnc3[nH]c(CN4CCOCC4)cc3c21 [pemigatinib] | 0.945
Cc1cc(C(C#N)c2ccc(Cl)cc2)c(Cl)cc1NC(=O)c1cc(I)cc(I)c1O (configuration not stated) [Closantel] + CCN1C(=O)N(c2c(F)c(OC)cc(OC)c2F)Cc2cnc3[nH]c(CN4CCOCC4)cc3c21 [pemigatinib] | 0.988
CC(C)(C)c1cc(C=C(C#N)C#N)cc(C(C)(C)C)c1O [Tyrphostin 9] + CCN1C(=O)N(c2c(F)c(OC)cc(OC)c2F)Cc2cnc3[nH]c(CN4CCOCC4)cc3c21 [pemigatinib] | 0.357
CCOC(=O)c1cncn1[C@H](C)c1ccccc1 [Etomidate] + CCN1C(=O)N(c2c(F)c(OC)cc(OC)c2F)Cc2cnc3[nH]c(CN4CCOCC4)cc3c21 [pemigatinib] | 0.988
CC(O)(CS(=O)(=O)c1ccc(F)cc1)C(=O)Nc1ccc(C#N)c(C(F)(F)F)c1 (configuration not stated) [Bicalutamide] + CCN1C(=O)N(c2c(F)c(OC)cc(OC)c2F)Cc2cnc3[nH]c(CN4CCOCC4)cc3c21 [pemigatinib] | 0.96
O=c1cccc2n1C[C@@H]1CNC[C@H]2C1 [Cytisine] + CCN1C(=O)N(c2c(F)c(OC)cc(OC)c2F)Cc2cnc3[nH]c(CN4CCOCC4)cc3c21 [pemigatinib] | 0.966
CC(C)OC(=O)[C@H](C)N[P@](=O)(CO[C@H](C)Cn1cnc2c(N)ncnc21)Oc1ccccc1 [Tenofovir Alafenamide (GS-7340)] + CCN1C(=O)N(c2c(F)c(OC)cc(OC)c2F)Cc2cnc3[nH]c(CN4CCOCC4)cc3c21 [pemigatinib] | 0.864
O=[N+]([O-])c1ncc[nH]1 [Azomycin] + CCN1C(=O)N(c2c(F)c(OC)cc(OC)c2F)Cc2cnc3[nH]c(CN4CCOCC4)cc3c21 [pemigatinib] | 0.97

Compound | cell viability
CC[C@H](C)[C@@H]([C@@H](CC(=O)N1CCC[C@H]1[C@H](OC)[C@@H](C)C(=O)N[C@H](C)[C@@H](O)c1ccccc1)OC)N(C)C(=O)[C@@H](NC(=O)[C@@H](NC)C(C)C)C(C)C [Monomethyl auristatin E (MMAE)] + CCN1C(=O)N(c2c(F)c(OC)cc(OC)c2F)Cc2cnc3[nH]c(CN4CCOCC4)cc3c21 [pemigatinib] | 0.256
c1ccc([C@@H]2C[C@H]2NC2CCNCC2)cc1 + CCN1C(=O)N(c2c(F)c(OC)cc(OC)c2F)Cc2cnc3[nH]c(CN4CCOCC4)cc3c21 [pemigatinib] | 0.961
COc1ccc(CC2NCCc3cc(OC)c(OC)cc32)cc1OC (configuration not stated) [Tetrahydropapaverine HCl] + CCN1C(=O)N(c2c(F)c(OC)cc(OC)c2F)Cc2cnc3[nH]c(CN4CCOCC4)cc3c21 [pemigatinib] | 0.927
C[C@]12CC[C@H](O)CC1=CC[C@@H]1[C@@H]2CC[C@]2(C)C(=O)CC[C@@H]12 [Dehydroepiandrosterone (DHEA)] + CCN1C(=O)N(c2c(F)c(OC)cc(OC)c2F)Cc2cnc3[nH]c(CN4CCOCC4)cc3c21 [pemigatinib] | 0.962
CC(=O)O[C@H]1C[C@@H]2CC[C@@H]3[C@H](CC[C@@]4(C)[C@H]3C[C@H]([N+]3(C)CCCCC3)[C@@H]4OC(C)=O)[C@@]2(C)C[C@@H]1[N+]1(C)CCCCC1 [Pancuronium dibromide] + CCN1C(=O)N(c2c(F)c(OC)cc(OC)c2F)Cc2cnc3[nH]c(CN4CCOCC4)cc3c21 [pemigatinib] | 0.978
O=C(NCC1CCOCC1)c1cnc(Nc2ccc(Cl)cc2Cl)nc1C(F)(F)F + CCN1C(=O)N(c2c(F)c(OC)cc(OC)c2F)Cc2cnc3[nH]c(CN4CCOCC4)cc3c21 [pemigatinib] | 0.903
CN1CCCCC1Cn1cc(C(=O)c2cc([N+](=O)[O-])ccc2I)c2ccccc21 (configuration not stated) + CCN1C(=O)N(c2c(F)c(OC)cc(OC)c2F)Cc2cnc3[nH]c(CN4CCOCC4)cc3c21 [pemigatinib] | 0.955
O=c1ccc2cc(O[C@@H]3O[C@H](CO)[C@@H](O)[C@H](O)[C@H]3O)c(O)cc2o1 [Esculin] + CCN1C(=O)N(c2c(F)c(OC)cc(OC)c2F)Cc2cnc3[nH]c(CN4CCOCC4)cc3c21 [pemigatinib] | 0.996
O=C(O)C(=O)c1cn(Cc2ccccc2)c2ccc(-c3ccc(OC(F)(F)F)cc3)cc12 [Tiplaxtinin (PAI-039)] + CCN1C(=O)N(c2c(F)c(OC)cc(OC)c2F)Cc2cnc3[nH]c(CN4CCOCC4)cc3c21 [pemigatinib] | 0.936
c1ccc2c(c1)Nc1ccccc1S2 [Phenothiazine] + CCN1C(=O)N(c2c(F)c(OC)cc(OC)c2F)Cc2cnc3[nH]c(CN4CCOCC4)cc3c21 [pemigatinib] | 0.953
Cc1cccc(Cc2c[nH]cn2)c1C [Detomidine HCl] + CCN1C(=O)N(c2c(F)c(OC)cc(OC)c2F)Cc2cnc3[nH]c(CN4CCOCC4)cc3c21 [pemigatinib] | 0.956
Cc1cccc(C)c1NC(=O)CN1CCCC1=O [Nefiracetam] + CCN1C(=O)N(c2c(F)c(OC)cc(OC)c2F)Cc2cnc3[nH]c(CN4CCOCC4)cc3c21 [pemigatinib] | 0.98
Cn1cc(C2=C(c3cn(C4CCN(Cc5ccccn5)CC4)c4ccccc34)C(=O)NC2=O)c2ccccc21 + CCN1C(=O)N(c2c(F)c(OC)cc(OC)c2F)Cc2cnc3[nH]c(CN4CCOCC4)cc3c21 [pemigatinib] | 1.05
C=CCN1CC[C@]23c4c5ccc(O)c4O[C@H]2C(=O)CC[C@@]3(O)[C@H]1C5 [Naloxone HCl] + CCN1C(=O)N(c2c(F)c(OC)cc(OC)c2F)Cc2cnc3[nH]c(CN4CCOCC4)cc3c21 [pemigatinib] | 0.91
C[C@@H]1CC[C@@]2(OC1)O[C@H]1C[C@H]3[C@@H]4CC=C5C[C@@H](O[C@@H]6O[C@H](CO)[C@@H](O[C@@H]7O[C@@H](C)[C@H](O)[C@@H](O)[C@H]7O)[C@H](O)[C@H]6O[C@@H]6O[C@@H](C)[C@H](O)[C@@H](O)[C@H]6O)CC[C@]5(C)[C@H]4CC[C@]3(C)[C@H]1[C@@H]2C [Dioscin] + CCN1C(=O)N(c2c(F)c(OC)cc(OC)c2F)Cc2cnc3[nH]c(CN4CCOCC4)cc3c21 [pemigatinib] | 0.735
Cc1sc2c(c1C)C(c1ccc(Cl)cc1)=N[C@@H](CC(N)=O)c1nnc(C)n1-2 + CCN1C(=O)N(c2c(F)c(OC)cc(OC)c2F)Cc2cnc3[nH]c(CN4CCOCC4)cc3c21 [pemigatinib] | 0.742
[O-][n+]1ccccc1[S-].[O-][n+]1ccccc1[S-].[Zn+2] [Zinc Pyrithione] + CCN1C(=O)N(c2c(F)c(OC)cc(OC)c2F)Cc2cnc3[nH]c(CN4CCOCC4)cc3c21 [pemigatinib] | 0.104
N[C@@H]1C[C@H]1c1ccccc1 [Tranylcypromine (2-PCPA) HCl] + CCN1C(=O)N(c2c(F)c(OC)cc(OC)c2F)Cc2cnc3[nH]c(CN4CCOCC4)cc3c21 [pemigatinib] | 0.924
